Our source for the activity change, negative = inhibition values is PubChem BioAssay AID1745853 (National Center for Advancing Translational Sciences (NCATS), 2022).

Holding throughout (test): Primary Screen for Target Class Profiling of Small Molecule Inhibitors of Methyltransferases
The target of assay [1] is Glycine N-methyltransferase (Homo sapiens) (UniProt Q14749). The settings on record: purified enzyme, MTase-Glo SAH luminescence; measured here: GNMT inhibition; at 40 µM; stronger effect = lower value. In a few lines:
(§1)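 Each enzyme was reacted with SAM and its substrate, with compounds tested once at 40 uM; SAH formed was read by MTase-Glo luminescence.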

For assay [2], the target named is Guanidinoacetate N-methyltransferase (Homo sapiens) (UniProt Q14353). The conditions noted are these: purified enzyme, MTase-Glo SAH luminescence; measured here: GAMT inhibition; at 40 µM; stronger effect = lower value. In a few lines:
as §1

Assay [3] concerns the target Histamine N-methyltransferase (Homo sapiens) (UniProt P50135). The settings on record: purified enzyme, MTase-Glo SAH luminescence; measured here: HNMT inhibition; at 40 µM; stronger effect = lower value. In a few lines: as §1
For assay [4], the target named is Nicotinamide N-methyltransferase (Homo sapiens) (UniProt P40261). The conditions noted are these: purified enzyme, MTase-Glo SAH luminescence; measured here: NNMT inhibition; at 40 µM; stronger effect = lower value. In a few lines:
as §1

Assay [5] deals with Phenylethanolamine N-methyltransferase (Homo sapiens) (UniProt P11086). The conditions noted are these: purified enzyme, MTase-Glo SAH luminescence; measured here: PNMT inhibition; at 40 µM; stronger effect = lower value. In a few lines: as §1

Where “and” joins values, the source holds several entries; their conditions need not be identical. Equal values may be shown once. Some of the results follow. Further columns of the screen follow, without active or inactive calls. Square brackets hold non-standard residues; d marks the D form. Peptide text beside a SMILES is read from it. 2Abz = Nc1ccccc1C(=O)O
% is scaled to controls: 0 for no effect and ±100 for the full control effect.

In the case of `O=C(CCCc1nnc2n3nc(-c4ccccc4)nc3c3ccccc3n12)NCCc1ccc(Cl)cc1`, the activity change, negative = inhibition is -10.8% in assay [1]; 2.43% in assay [2]; -4.38% in assay [3]; 5.01% in assay [4]; -7.64% in assay [5].

Regarding `CC(C)CCNC(=O)C1c2c(n(C)c3ccccc23)SCC(=O)N1c1ccc(F)cc1F` (stereo not drawn), the activity change, negative = inhibition in assay [1] is 6.17%; in assay [2] it was 0%; in assay [3] it was -3.12%; in assay [4], -5.91%; in assay [5], 1.13%.

As for `COCCCN1C(=O)c2cc3ccc(OC)cc3n2CC1(C)C(=O)NC1CCCCCC1` (stereo not drawn), the activity change, negative = inhibition in assay [1] stood at 2.92%; in assay [2] it was 0.328%; in assay [3], 4.48%; in assay [4], 5.3%; in assay [5], 0.021%.

Consider `COC(=O)C1=COC(O[C@@H]2O[C@H](COC(=O)/C=C/c3ccc(O)cc3)[C@@H](O)[C@H](O)[C@H]2O)C2C(CO)=CCC12` (stereo partly drawn), for which the activity change, negative = inhibition is 2.33% in assay [1]; 1.52% in assay [2]; 11% in assay [3]; -11.2% in assay [4]; -4.12% in assay [5].

On to `C[C@]1(CO)[C@H]2Cc3sc(NC(=O)c4ccc(F)cc4)nc3[C@@H](CC(=O)NCc3ccccc3)[C@]2(C)CC[C@H]1O`, for which the activity change, negative = inhibition in assay [1] is -11.4%; in assay [2], -9.85%; in assay [3], -8.14%; in assay [4] it was -16.2%; in assay [5], -13.9%.

Turning to `Cc1cccc(Cn2nc3n(Cc4ccccc4)c(=O)c4ccc(C(=O)NCC(C)C)cc4n3c2=O)c1`, the activity change, negative = inhibition in assay [1] came to 5.1%; in assay [2], 0%; in assay [3] it was 9.19%; in assay [4], 4.46%; in assay [5] it was 6.38%.

Take `C=C1CCC2[C@](C)(CO)CCC[C@@]2(C)[C@@H]1CCC1=CCOC1=O` (stereo partly drawn): the activity change, negative = inhibition in assay [1] is 2.29%; in assay [2], 3.9%; in assay [3], 8.86%; in assay [4], -12.9%; in assay [5], -6.12%.

Take `COc1ccccc1CN1C(=O)c2cc3occc3n2CC1(C)C(=O)NC1CCCC(C)C1C` (stereo not drawn): the activity change, negative = inhibition in assay [1] was -14.9%; in assay [2], -6.85%; in assay [3], -4.45%; in assay [4], -15.7%; in assay [5] it was -10.6%.

For `CCC(C)NC(=O)c1ccc2c(=O)n(C)c3nn(Cc4cccc(F)c4)c(=O)n3c2c1` (stereo not drawn), the activity change, negative = inhibition in assay [1] was found to be 7.13%; in assay [2], 2.17%; in assay [3] it was 8.81%; in assay [4], 4.58%; in assay [5], 8.11%.

For `Fc1ccc(-c2cccc(CN3CCOCC3)c2)c(Cl)c1`, the activity change, negative = inhibition in assay [1] is -4.02%; in assay [2], -1.11%; in assay [3], -2%; in assay [4] it was -13.1%; in assay [5], -6.19%.

Take `CC1(C(=O)NC2CCCCCC2)Cn2c(cc3ccccc32)C(=O)N1CC1CCCO1` (stereo not drawn): the activity change, negative = inhibition in assay [1] was 3.79%; in assay [2], 4.03%; in assay [3] it was -0.684%; in assay [4] it was 3.13%; in assay [5], -2.91%.

For `Cc1ccc(C)c(NS(=O)(=O)c2ccc3[nH]c(=O)[nH]c3c2)c1`, the activity change, negative = inhibition in assay [1] was -2.32%; in assay [2], 4.41%; in assay [3] it was 8.1%; in assay [4] it was 14.6%; in assay [5], -2.64%.

On to `COc1cccc(-c2nc3cc4c(cc3cc2CN2CCOCC2)OCO4)c1OC`, for which the activity change, negative = inhibition was -2.24% in assay [1]; -2.16% in assay [2]; -0.752% in assay [3]; -13.2% in assay [4]; -26.2% in assay [5].

Take `CC1(C(=O)NC2CCCC2)Cn2c(ccc2-c2ccco2)C(=O)N1Cc1ccc2c(c1)OCO2` (stereo not drawn): the activity change, negative = inhibition was -9.24% in assay [1]; 0% in assay [2]; 2.36% in assay [3]; -5.82% in assay [4]; -5.48% in assay [5].

For the compound `O=C(NCCCN1CCC2(CC1)OCc1ccccc12)[C@H]1CCCN1Cc1ccccc1`, the activity change, negative = inhibition in assay [1] was -2.59%; in assay [2] it was 3.05%; in assay [3] it was 0.705%; in assay [4], -18.5%; in assay [5], -2.83%.

Turning to `Cc1cc(C)cc(NS(=O)(=O)c2cc3c(cc2C)n(C)c(=O)n3C)c1`, the activity change, negative = inhibition is 11.9% in assay [1]; 0% in assay [2]; 4.33% in assay [3]; -2.06% in assay [4]; 2.97% in assay [5].

For the compound `CC(C)OCCCn1c(=O)c2cc(Cl)ccc2n2c(SCc3ccc(F)cc3)nnc12`, the activity change, negative = inhibition in assay [1] is -0.833%; in assay [2], 4.08%; in assay [3], 10.9%; in assay [4], -7.84%; in assay [5], 5.14%.

With `COc1cc(=O)n2c(c1C(=O)NCc1ccccc1Cl)CCCC2`, the activity change, negative = inhibition was -4.84% in assay [1]; -5.44% in assay [2]; -2.22% in assay [3]; -9.77% in assay [4]; -7.96% in assay [5].

Take `COc1ccccc1N1CCN(CCN(C(=O)C2CCCCC2)c2ccccn2)CC1`: the activity change, negative = inhibition in assay [1] is 2.15% and 8.37%; in assay [2] it was 12.7% and 7.67%; in assay [3] it was 6.22% and 8.2%; in assay [4], -2.01% and -4.2%; in assay [5] it was 5.03% and 3.85%.

In the case of `Cc1ccc(C)c(Cn2nc3n(Cc4ccccc4)c(=O)c4ccccc4n3c2=O)c1`, the activity change, negative = inhibition in assay [1] was determined as 5.45%; in assay [2], 0%; in assay [3], 10.1%; in assay [4], 6.58%; in assay [5], 5.45%.

On to `Cn1cc(CN2CCCCCNC(=O)[C@@H]3CCC[C@@H]32)c2ccccc21`, for which the activity change, negative = inhibition is -11.4% in assay [1]; -9.92% in assay [2]; -12.5% in assay [3]; -23.3% in assay [4]; -9.93% in assay [5].

For the compound `COc1ncccc1-c1cc2c(ccn2CC2CCN([S+](C)(=O)[O-])CC2)c(N2CCOCC2)n1`, the activity change, negative = inhibition in assay [1] is -22.9%; in assay [2], -11.6%; in assay [3] it was -54.8%; in assay [4] it was -16.8%; in assay [5] it was -45.8%.

As to `Cc1cccc(CN2C(=O)c3ccc(-c4ccco4)n3CC2(C)C(=O)NC2CCCCC2)c1` (stereo not drawn), the activity change, negative = inhibition in assay [1] is -2.62%; in assay [2], 4.72%; in assay [3], -1.78%; in assay [4], -8.1%; in assay [5], -1.15%.

As for `CS(=O)(=O)c1ccc([C@@H](C[C@H]2CCC(=O)C2)C(=O)Nc2cnccn2)cc1Cl`, the activity change, negative = inhibition in assay [2] was -1.41%; in assay [4], -9.79%; in assay [5], 2.7%.

For `CCC(C)C1NC(=O)C2CCCN2C(=O)C(C(C)C)NC(=O)c2ccccc2NC(=O)C(Cc2ccc(O)cc2)NC(=O)C(C)NC(=O)C(C(C)O)NC1=O` (stereo not drawn) (cyclo([2Abz]VPITAY); configuration not given here), the activity change, negative = inhibition in assay [1] was 0%; in assay [2], 5.9%; in assay [3] it was 11.7%; in assay [4], -4.82%; in assay [5], 1.24%.

Take `CC1CCCCN1CCNC(=O)CCc1nnc2n(Cc3ccc(F)cc3)c(=O)c3ccccc3n12` (stereo not drawn): the activity change, negative = inhibition was -7.12% in assay [1]; 4.82% in assay [2]; -51.9% in assay [3]; -5.83% in assay [4]; 0.406% in assay [5].

As to `CCC(C)NC(=O)c1ccc2c(=O)n(C)c3nn(Cc4c(F)cccc4Cl)c(=O)n3c2c1` (stereo not drawn), the activity change, negative = inhibition was 2.33% in assay [1]; 3.88% in assay [2]; 4.4% in assay [3]; 4.82% in assay [4]; 0.796% in assay [5].

In the case of `O=C(CCn1ccc2cc(S(=O)(=O)N3CCCCC3)ccc21)NCCc1ccco1`, the activity change, negative = inhibition in assay [1] was -4.57%; in assay [2], 0%; in assay [3] it was 7.27%; in assay [4] it was -12.7%; in assay [5], -4.96%.

On to `Cc1cnc(CC2CCN(C(=O)Cc3cccc(F)c3)CC2)n1CC1CC1`, for which the activity change, negative = inhibition was -2.4% in assay [1]; -0.088% in assay [2]; -29.2% in assay [3]; -39.8% in assay [4]; -1.7% in assay [5].
